# Source: the supplement of paper PMC8728848
# Some of the results follow.
# Assays:
# Assay in all cases: glycan array binding signal (z-score within array); higher = stronger binding
# Details in all cases: glycan notation: IUPAC condensed, linker removed
# [1] = target: Fuc(a1-2)Gal(b1-4)[Fuc(a1-3)]GlcNAc
# Outline: (§1)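 The binding signal is a Z-score computed within each array. Data were drawn from 3228 arrays in the Consortium for Functional Glycomics database, restricted to those with a known protein sequence. Scores were averaged over arrays of the same protein sequence at different concentrations or buffers, and over linkers, and negative values can be taken as non-binding.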
# [2] = target: Fuc(a1-2)Gal(b1-4)[Fuc(a1-3)]GlcNAc(b1-2)Man(a1-3)[Fuc(a1-2)Gal(b1-4)[Fuc(a1-3)]GlcNAc(b1-2)Man(a1-6)]Man(b1-4)GlcNAc(b1-4)[Fuc(a1-6)]GlcNAc
# Outline: as §1
# [3] = target: Fuc(a1-2)Gal(b1-4)[Fuc(a1-3)]GlcNAc(b1-2)[Fuc(a1-2)Gal(b1-4)[Fuc(a1-3)]GlcNAc(b1-4)]Man(a1-3)[Fuc(a1-2)Gal(b1-4)[Fuc(a1-3)]GlcNAc(b1-2)Man(a1-6)]Man(b1-4)GlcNAc(b1-4)GlcNAc
# Outline: as §1
# [4] = target: Fuc(a1-2)Gal(b1-4)[Fuc(a1-3)]GlcNAc(b1-3)Gal(b1-4)[Fuc(a1-3)]GlcNAc
# Outline: as §1
# [5] = target: Fuc(a1-2)Gal(b1-4)[Fuc(a1-3)]GlcNAc(b1-3)Gal(b1-4)[Fuc(a1-3)]GlcNAc(b1-3)Gal(b1-4)[Fuc(a1-3)]GlcNAc
# Outline: as §1
# [6] = target: Fuc(a1-2)Gal(b1-4)[Fuc(a1-3)]GlcNAc(b1-3)GalNAc
# Outline: as §1
# [7] = target: Fuc(a1-2)Gal(b1-4)[Fuc(a1-3)]GlcNAc(b1-3)[Neu5Ac(a2-6)Gal(b1-4)GlcNAc(b1-6)]Gal(b1-4)Glc
# Outline: as §1
# [8] = target: Fuc(a1-2)Gal3S(b1-4)GlcNAc
# Outline: as §1
# [9] = target: Fuc(a1-2)Gal6S(b1-3)GlcNAc
# Outline: as §1
# [10] = target: Fuc(a1-2)Gal6S(b1-3)GlcNAc6S
# Outline: as §1
# Fuc(a1-2)Gal6S(b1-4)Glc = target: Fuc(a1-2)Gal6S(b1-4)Glc
# Outline: as §1
# [11] = target: Fuc(a1-2)Gal6S(b1-4)Glc6S
# Outline: as §1
# Fuc(a1-2)[Gal(a1-3)]Gal = target: Fuc(a1-2)[Gal(a1-3)]Gal
# Outline: as §1
# [12] = target: Fuc(a1-2)[Gal(a1-3)]Gal(b1-3)GalNAc
# Outline: as §1
# [13] = target: Fuc(a1-2)[Gal(a1-3)]Gal(b1-3)GalNAc(b1-3)Gal(a1-4)Gal(b1-4)Glc
# Outline: as §1
# [14] = target: Fuc(a1-2)[Gal(a1-3)]Gal(b1-3)GlcNAc
# Outline: as §1
# [15] = target: Fuc(a1-2)[Gal(a1-3)]Gal(b1-3)GlcNAc(b1-2)Man(a1-3)[Fuc(a1-2)[Gal(a1-3)]Gal(b1-3)GlcNAc(b1-2)Man(a1-6)]Man(b1-4)GlcNAc(b1-4)GlcNAc
# Outline: as §1
# [16] = target: Fuc(a1-2)[Gal(a1-3)]Gal(b1-3)GlcNAc(b1-2)Man(a1-3)[Fuc(a1-2)[Gal(a1-3)]Gal(b1-3)GlcNAc(b1-2)Man(a1-6)]Man(b1-4)GlcNAc(b1-4)[Fuc(a1-6)]GlcNAc
# Outline: as §1
# [17] = target: Fuc(a1-2)[Gal(a1-3)]Gal(b1-3)GlcNAc(b1-3)GalNAc
# Outline: as §1
# [18] = target: Fuc(a1-2)[Gal(a1-3)]Gal(b1-3)GlcNAc(b1-6)GalNAc
# Outline: as §1
# [19] = target: Fuc(a1-2)[Gal(a1-3)]Gal(b1-4)Glc
# Outline: as §1
# [20] = target: Fuc(a1-2)[Gal(a1-3)]Gal(b1-4)GlcNAc
# Outline: as §1
# [21] = target: Fuc(a1-2)[Gal(a1-3)]Gal(b1-4)GlcNAc(b1-2)Man
# Outline: as §1
# [22] = target: Fuc(a1-2)[Gal(a1-3)]Gal(b1-4)GlcNAc(b1-2)Man(a1-3)[Fuc(a1-2)[Gal(a1-3)]Gal(b1-4)GlcNAc(b1-2)Man(a1-6)]Man(b1-4)GlcNAc(b1-4)GlcNAc
# Outline: as §1
# [23] = target: Fuc(a1-2)[Gal(a1-3)]Gal(b1-4)GlcNAc(b1-2)Man(a1-3)[Fuc(a1-2)[Gal(a1-3)]Gal(b1-4)GlcNAc(b1-2)Man(a1-6)]Man(b1-4)GlcNAc(b1-4)[Fuc(a1-6)]GlcNAc
# Outline: as §1
# [24] = target: Fuc(a1-2)[Gal(a1-3)]Gal(b1-4)GlcNAc(b1-3)GalNAc
# Outline: as §1
# [25] = target: Fuc(a1-2)[Gal(a1-3)]Gal(b1-4)GlcNAc(b1-3)[Fuc(a1-2)[Gal(a1-3)]Gal(b1-4)GlcNAc(b1-6)]GalNAc
# Outline: as §1
# [26] = target: Fuc(a1-2)[Gal(a1-3)]Gal(b1-4)GlcNAc(b1-6)GalNAc
# Outline: as §1
# [27] = target: Fuc(a1-2)[Gal(a1-3)]Gal(b1-4)[Fuc(a1-3)]Glc
# Outline: as §1
# [28] = target: Fuc(a1-2)[Gal(a1-3)]Gal(b1-4)[Fuc(a1-3)]GlcNAc
# Outline: as §1
# [29] = target: Fuc(a1-2)[Gal(a1-3)]Gal(b1-4)[Fuc(a1-3)]GlcNAc(b1-3)GalNAc
# Outline: as §1
# [30] = target: Fuc(a1-2)[Gal(a1-4)]Gal(b1-4)GlcNAc
# Outline: as §1
# [31] = target: Fuc(a1-2)[GalNAc(a1-3)]Gal
# Outline: as §1
# [32] = target: Fuc(a1-2)[GalNAc(a1-3)]Gal(b1-3)GalNAc(a1-3)[Fuc(a1-2)]Gal(b1-4)GlcNAc
# Outline: as §1
# [33] = target: Fuc(a1-2)[GalNAc(a1-3)]Gal(b1-3)GalNAc(b1-3)Gal(a1-4)Gal(b1-4)Glc
# Outline: as §1
# [34] = target: Fuc(a1-2)[GalNAc(a1-3)]Gal(b1-3)GlcNAc
# Outline: as §1
# [35] = target: Fuc(a1-2)[GalNAc(a1-3)]Gal(b1-3)GlcNAc(b1-2)Man(a1-3)[Fuc(a1-2)[GalNAc(a1-3)]Gal(b1-3)GlcNAc(b1-2)Man(a1-6)]Man(b1-4)GlcNAc(b1-4)GlcNAc
# Outline: as §1
# [36] = target: Fuc(a1-2)[GalNAc(a1-3)]Gal(b1-3)GlcNAc(b1-2)Man(a1-3)[Fuc(a1-2)[GalNAc(a1-3)]Gal(b1-3)GlcNAc(b1-2)Man(a1-6)]Man(b1-4)GlcNAc(b1-4)[Fuc(a1-6)]GlcNAc
# Outline: as §1
binder,measurement,setting,value
"Gal-9-hFc (Mus musculus), O08573-2 (protein) MALFSAQSPYINPIIPFTGPIQGGLQEGLQVTLQGTTKSFAQRFVVNFQNSFNGNDIAFHFNPRFEEGGYVVCNTKQNGQWGPEERKMQMPFQKGMPFELCFLVQRSEFKVMVNKKFFVQYQHRVPYHLVDTIAVSGCLKLSFITFQTQNFRPAHQAPMAQTTIHMVHSTPGQMFSTPGIPPVVYPTPAYTIPFYTPIPNGLYPSKSIMISGNVLPDATRFHINLRCGGDIAFHLNPRFNENAVVRNTQINNSWGQEERSLLGRMPFSRGQSFSVWIICEGHCFKVAVNGQHMCEYYHRLKNLQDINTLEVAGDIQLTHVQT",glycan array binding signal (z-score),[1],-0.423
same,glycan array binding signal (z-score),[2],-0.315
same,glycan array binding signal (z-score),[3],0.524
same,glycan array binding signal (z-score),[4],-0.331
same,glycan array binding signal (z-score),[5],-0.31
same,glycan array binding signal (z-score),[6],-0.035
same,glycan array binding signal (z-score),[7],-0.438
same,glycan array binding signal (z-score),[8],-0.539
same,glycan array binding signal (z-score),[9],-0.507
same,glycan array binding signal (z-score),[10],0.395
same,glycan array binding signal (z-score),Fuc(a1-2)Gal6S(b1-4)Glc,-0.252
same,glycan array binding signal (z-score),[11],-0.203
same,glycan array binding signal (z-score),Fuc(a1-2)[Gal(a1-3)]Gal,-0.296
same,glycan array binding signal (z-score),[12],-0.407
same,glycan array binding signal (z-score),[13],-0.365
same,glycan array binding signal (z-score),[14],-0.095
same,glycan array binding signal (z-score),[15],-0.254
same,glycan array binding signal (z-score),[16],0.185
same,glycan array binding signal (z-score),[17],-0.154
same,glycan array binding signal (z-score),[18],-0.057
same,glycan array binding signal (z-score),[19],0.289
same,glycan array binding signal (z-score),[20],-0.025
same,glycan array binding signal (z-score),[21],0.292
same,glycan array binding signal (z-score),[22],1.3
same,glycan array binding signal (z-score),[23],0.446
same,glycan array binding signal (z-score),[24],-0.153
same,glycan array binding signal (z-score),[25],4.4
same,glycan array binding signal (z-score),[26],0.473
same,glycan array binding signal (z-score),[27],-0.453
same,glycan array binding signal (z-score),[28],-0.369
same,glycan array binding signal (z-score),[29],-0.287
same,glycan array binding signal (z-score),[30],-0.371
same,glycan array binding signal (z-score),[31],-0.468
same,glycan array binding signal (z-score),[32],-0.226
same,glycan array binding signal (z-score),[33],-0.329
same,glycan array binding signal (z-score),[34],-0.105
same,glycan array binding signal (z-score),[35],-0.434
same,glycan array binding signal (z-score),[36],-0.214
